In patent publication US5763625A, “Synthesis and use of β-lapachone analogs” (priority 1995, dated 1998):
Where two headings read alike, the source gives them in different places.

Experiments:
purified human Topo I = biological target: T1, purified human Topo I (Homo sapiens, UniProt P11387); experiment: Topo I inhibition, DNA unwinding assay; type: biochemical
T1 sequence (P11387 1-765): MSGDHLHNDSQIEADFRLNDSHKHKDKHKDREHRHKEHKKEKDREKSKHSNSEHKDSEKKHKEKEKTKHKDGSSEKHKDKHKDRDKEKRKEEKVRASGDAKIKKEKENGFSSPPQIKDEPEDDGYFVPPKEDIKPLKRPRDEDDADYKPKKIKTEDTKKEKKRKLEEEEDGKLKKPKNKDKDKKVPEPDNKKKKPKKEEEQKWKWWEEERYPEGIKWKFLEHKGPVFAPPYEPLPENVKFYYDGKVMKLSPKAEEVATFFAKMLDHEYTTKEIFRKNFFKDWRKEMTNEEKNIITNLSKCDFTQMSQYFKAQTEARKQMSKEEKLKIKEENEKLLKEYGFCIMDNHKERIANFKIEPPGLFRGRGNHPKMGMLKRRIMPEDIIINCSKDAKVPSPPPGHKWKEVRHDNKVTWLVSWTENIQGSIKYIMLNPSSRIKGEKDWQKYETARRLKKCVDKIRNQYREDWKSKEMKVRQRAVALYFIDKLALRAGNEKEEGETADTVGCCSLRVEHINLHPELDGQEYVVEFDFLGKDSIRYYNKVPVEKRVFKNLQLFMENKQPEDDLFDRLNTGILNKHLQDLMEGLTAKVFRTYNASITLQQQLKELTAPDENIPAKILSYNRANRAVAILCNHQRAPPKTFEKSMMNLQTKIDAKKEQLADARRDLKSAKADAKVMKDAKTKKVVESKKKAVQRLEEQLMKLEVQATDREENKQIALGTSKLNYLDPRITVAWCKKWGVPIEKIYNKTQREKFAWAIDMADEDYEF

Topo I = biological target: T2, Topo I (Cricetulus griseus, UniProt Q07050); type: biochemical, Chinese hamster
T2 construct: Extracts from unirradiated CHEF/18 cells and its neoplastic derivatives; endogenous in cells; host or cells: CHEF/18 cells and neoplastic derivatives 21-2M3 and T30-4 (extracts)
T2 sequence (Q07050 1-767): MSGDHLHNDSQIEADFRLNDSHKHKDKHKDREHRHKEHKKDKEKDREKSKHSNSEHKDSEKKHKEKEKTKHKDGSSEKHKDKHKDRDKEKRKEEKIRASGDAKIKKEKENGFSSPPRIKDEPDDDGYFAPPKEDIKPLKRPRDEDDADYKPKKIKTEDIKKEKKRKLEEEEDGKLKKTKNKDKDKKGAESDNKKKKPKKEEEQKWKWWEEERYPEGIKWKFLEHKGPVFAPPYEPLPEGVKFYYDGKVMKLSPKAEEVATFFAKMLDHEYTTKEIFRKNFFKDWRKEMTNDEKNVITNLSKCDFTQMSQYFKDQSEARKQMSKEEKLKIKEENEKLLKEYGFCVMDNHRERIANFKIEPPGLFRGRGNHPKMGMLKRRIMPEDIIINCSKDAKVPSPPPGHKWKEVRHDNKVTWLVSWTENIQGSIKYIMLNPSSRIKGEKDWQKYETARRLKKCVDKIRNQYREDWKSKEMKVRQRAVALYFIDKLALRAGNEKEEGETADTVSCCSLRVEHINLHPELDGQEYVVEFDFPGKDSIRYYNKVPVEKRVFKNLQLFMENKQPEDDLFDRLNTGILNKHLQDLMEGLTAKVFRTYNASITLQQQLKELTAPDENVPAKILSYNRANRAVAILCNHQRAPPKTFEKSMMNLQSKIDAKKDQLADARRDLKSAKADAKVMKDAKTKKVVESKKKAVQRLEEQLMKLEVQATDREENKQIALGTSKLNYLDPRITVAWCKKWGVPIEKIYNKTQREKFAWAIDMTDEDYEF

[1] = system: HL60 (human promyelocytic leukemia) cells; experiment: Induction of apoptosis in HL60 cells (DNA laddering, loss of intact genomic DNA); conditions: dissolved in DMSO, various concentrations
[2] = system: AMV reverse transcriptase

CC1(C)OC2=C(CC1O)C(=O)C(=O)c1ccccc12 (stereo not drawn) [3-hydroxy-β-lapachone]
inhibition of Topo I (purified human Topo I; at 1 μM): Complete inhibition

CC[C@@]1(O)C(=O)OCc2c1cc1n(c2=O)Cc2cc3ccccc3nc2-1 [camptothecin]
inhibition of Topo I activities (Topo I; 50 nM-1 μM, at 30 minutes and 2 hours, CHEF/18, 21-2M3, T30-4 extracts): 100%
inhibition of Topo I (Topo I; between 1 nM and 10 nM): partial inhibition

CC(C)=CCC1=C(O)C(=O)c2ccccc2C1=O [lapachol]
induction of apoptosis [1]: nor did they induce apoptosis

CC1(C)CCC2=C(O1)C(=O)c1ccccc1C2=O [α-lapachone]
inhibition of Topo I (purified human Topo I; dissolved in DMSO, various concentrations): did not inhibit Topo I
induction of apoptosis [1]: nor did they induce apoptosis

CC1(C)CCC2=C(O1)c1ccccc1C(=O)C2=O [β-lapachone]
cpm On Glass Fiber Filter ([2]; AMV 1 unit/reaction + 4 μM): 61,812 cpm
cpm On Glass Fiber Filter ([2]; AMV 1 unit/reaction + 10 μM): 67,942 cpm
cpm On Glass Fiber Filter ([2]; AMV 1 unit/reaction + 50 μM): 44,838 cpm
cpm On Glass Fiber Filter ([2]; AMV 1 unit/reaction + 100 μM): 59,358 cpm
cpm On Glass Fiber Filter ([2]; AMV + Topo I (3 units/reaction) + 4 μM): 14,783 cpm
cpm On Glass Fiber Filter ([2]; AMV + Topo I (3 units/reaction) + 10 μM): 10,092 cpm
cpm On Glass Fiber Filter ([2]; AMV + Topo I (3 units/reaction) + 50 μM): 9,431 cpm
cpm On Glass Fiber Filter ([2]; AMV + Topo I (3 units/reaction) + 100 μM): 7,245 cpm
effect on the decrease in reverse transcriptase activity caused by Topo I ([2]; concomitant addition with Topo I): greatly augmented
effect on AMV reverse transcriptase activity ([2]; without Topo I): does not influence the enzymatic activity
